Reference: PubChem BioAssay AID1458 (National Center for Advancing Translational Sciences (NCATS), 2008)
Among all 210,000 compounds or so, about 5,900 (2.8%) were called active. Inconclusive means that the source gave no clear call. Such entries were picked first, then a sample of the others. Calls come from the whole dose curve; as a rule, active = well fitted activation curve with a large enough effect; inconclusive = small, poorly fitted or top-dose-only effect; inactive = no such curve, though single readings can be large or run the other way. Potencies of inconclusive entries are doubtful fits and often do not repeat.

assay: qHTS Assay for Enhancers of SMN2 Splice Variant Expression; details: HEK293 SMN2-luciferase splicing reporter, luminescence, 30-36 h; activity change, positive = activation: at 46.1 µM (top of the series); note: nearly all actives have a fitted effect of over 55% in size; for activity change, positive = activation: % of control where 0% means no effect
Summary of the method: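 HEK293 cells carry an SMN2 minigene-luciferase reporter in which exon 7 inclusion puts luciferase in frame. Cells were seeded at 2000 cells/well, attached for 10-12 hours, then exposed to compounds for 30-36 hours at 37C before ONE-Glo luminescence.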
Potency is the fitted concentration of half-maximal effect; tags give direction and shape of the fitted curve.

Structure (SMILES) | activity change, positive = activation | Potency
CCOc1ccccc1NC(=O)Cc1c(F)cccc1Cl | inactive: -5.58% | 
C=C1C[C@@]23C[C@]1(O)CC[C@@H]2[C@]12C=C[C@@H](O)[C@](C)(C(=O)O1)[C@H]2[C@H]3C(=O)O | inactive: -6.9% [at 20.6 µM] | 
O=C(Nc1cccc(O)c1)c1ccc(C(=O)c2ccccc2)o1 |  | inconclusive: 35.5 µM [activator, single point]
CCCNC(=O)N1CCN(c2nc(C(C)C)c3c(c2C#N)CC(C)(C)OC3)CC1 |  | inconclusive: 35.5 µM [activator, single point]
CNC(=O)c1ccccc1NC(=O)c1ccc(C)c(S(=O)(=O)N2CCCCC2)c1 | inconclusive: 35% [activator] | 
Fc1ccc(CNC(=S)Nc2ccccc2Cl)cc1 |  | inconclusive: 5.62 µM [activator, single point]
CCOc1ccc2nc(/N=C/c3c(C)[nH]n(-c4ccc(C)cc4)c3=O)sc2c1 |  | active: 14.1 µM
CCN(CC(=O)Nc1ccc(NC(C)=O)cc1)C(=O)C(c1ccccc1)c1ccccc1 |  | inconclusive: 0.0501 µM [activator, full curve]
Cc1ccc(NC(=O)c2ccc3snnc3c2)cc1C |  | active: 20 µM
Cc1cccc(C(C)C)c1NC(=O)c1ccc2c(c1)CCN2S(C)(=O)=O | inactive: -26.9% | 
O=C(c1ccc(C#CC2(O)CCCCC2)cc1)N1CCOCC1 |  | inconclusive: 0.158 µM [activator, full curve, poor fit]
C[C@H](NC(=O)c1ccc(Cl)c(Cl)c1)c1ccc(-c2ccccc2)cc1 | inactive: 0.535% [at 9.22 µM] | 
CCOC(=O)c1c(CN2CCOCC2)n(-c2ccccc2)c2cc(Br)c(OC)cc12 | inactive: -26.3% | 
COC(=O)c1ccc(CSc2nc3sc(C(=O)O)c(C)c3c(=O)[nH]2)cc1 | inactive: -7.9% | 
CCC(=O)Nc1ccc(S(=O)(=O)N2CCN(c3ccc(F)cc3)CC2)cc1 | inactive: -17.6% | 
CS(=O)(=O)N(CC(=O)NCCC1=CCCCC1)C1CCCCC1 |  | inconclusive: 5.62 µM [activator, full curve, poor fit]
CC(C)c1ccc(OC(=O)NCCO)cc1 |  | inconclusive: 3.16 µM [activator, partial curve, poor fit]
COc1ccc(OCC(=O)N/N=C/C=C/c2ccccc2)cc1 | inactive: 9.22% | 
O=C(CN(c1ccc(F)cc1)S(=O)(=O)c1ccc2c(c1)OCCO2)Nc1cccnc1 |  | inconclusive: 3.16 µM [activator, partial curve, poor fit]
O=C(/C=C/Nc1ccccc1C(=O)O)c1cccs1 |  | active: 11.2 µM
CCSc1nncn1/N=C/c1ccc(OC)c(OC)c1 |  | inconclusive: 17.8 µM [activator, single point]
CC(/C=C1\SC(=S)N(NC(=O)c2ccc(O)cc2)C1=O)=C\c1ccccc1 |  | inconclusive: 0.0316 µM [activator, full curve, poor fit]
CC(=O)C1=C(S(=O)(=O)c2ccc(C)cc2)CS(=O)(=O)C1 | inactive: -61.2% | 
Cc1ccc(OCc2csc(N)n2)cc1 |  | active: 12.6 µM

Structure (SMILES) | activity change, positive = activation | Potency
Cc1cc(-c2ccccc2)nc(N2CCN(c3ccccn3)CC2)n1 |  | inconclusive: 35.5 µM [activator, single point]
Cc1ccc(C)c(N2CCN(c3nc4ccc(C(=O)c5ccccc5)cc4n4cnnc34)CC2)c1 |  | inconclusive: 22.4 µM [activator, single point]
CCSc1nnc(NC(=O)/C=C/c2ccco2)s1 |  | active: 11.2 µM
CN(C)CCC1CCN(c2cc(C#N)c(C#N)cc2[N+](=O)[O-])CC1 |  | inconclusive: 3.55 µM [activator, single point]
CCc1ccc(CC2S/C(=C(\C#N)C(C)=O)NC2=O)cc1 (configuration not stated) |  | active: 11.2 µM
Cc1nn(C(=O)c2ccoc2C)c(N)c1-c1ccccc1 |  | active: 12.6 µM
CCn1cc(S(=O)(=O)c2ccc(C)cc2)[nH]c1=O |  | inconclusive: 35.5 µM [activator, single point]
COc1ccc2c(c1OC)C(=O)OC2CC(=O)O (configuration not stated) |  | inconclusive: 20 µM [activator, single point]
COc1cc(/C=C(\C#N)c2nc3ccccc3[nH]2)cc(Br)c1OCc1ccccc1 | inactive: -41.7% | 
CCC1=C2CC[C@H]3C(=O)NC(=O)[C@H]3[C@H]2[C@@]2(Cc3ccccc3)C(=NCc3ccccc3)OC(=O)N2C1=O | inactive: -14.8% | 
NC(=O)CCn1c(=O)oc2ccccc21 |  | inconclusive: 0.794 µM [activator, full curve, poor fit]
CCc1ccccc1N1CSC2=C(C#N)C(c3cc(OC)c(OC)cc3OC)CC(=O)N2C1 (configuration not stated) |  | inconclusive: 4.47 µM [activator, partial curve, poor fit]
CCCCNC(=O)/C(C#N)=C/c1ccc2c(c1)OCCO2 | inactive: 14.3% | 
Cc1cccc(CSc2ccc(-c3ccco3)nn2)c1 |  | inconclusive: 35.5 µM [activator, single point]
C=CCNCCOCCOc1ccc(Cl)cc1C(C)(C)C | inactive: -14.2% | 
O=C(N/N=C/c1ccccc1F)NC1CCCCC1 |  | inconclusive: 4.47 µM [activator, partial curve, poor fit]
Cc1ccc2[nH]c(=O)c3cc(C(=O)NCCCN4CCC(C)CC4)sc3c2c1 | inactive: 13.6% | 
COc1cc(/C=N/NC(=O)C(=O)/C=C2\NC3(CCCC3)Cc3ccccc32)ccc1O |  | inconclusive: 5.62 µM [activator, single point]
O=C(Cn1ncn2c(cc3ccccc32)c1=O)NCc1ccc(F)cc1 | inactive: 3.56% | 
COc1ccc(CC(=O)n2nc(-c3ccccc3)nc2NCc2ccco2)cc1 |  | inconclusive: 3.98 µM [activator, full curve, poor fit]
Nc1nc(SCc2ccc([N+](=O)[O-])cc2)c2ncn([C@@H]3O[C@H](CO)[C@H](O)[C@H]3O)c2n1 |  | inconclusive: 0.126 µM [activator, partial curve]
CCN(CC)c1ccc(/C=C/C(=O)C2C(=O)C=C(C)OC2=O)cc1 (configuration not stated) |  | inconclusive: 12.6 µM [activator, partial curve, poor fit]
Cn1c(=O)oc2cc(S(=O)(=O)N3CCC(C(=O)N4CCN(c5ccccc5F)CC4)CC3)ccc21 | inactive: -9.74% | 
Cc1ccc2oc(=O)n(Cc3ccccc3OC(C)C)c2c1 |  | inconclusive: 3.55 µM [activator, partial curve]

Structure (SMILES) | activity change, positive = activation | Potency
CC(=O)Nc1ccc(C(=O)NCC(=O)OCc2c(F)cccc2Cl)cc1 |  | inconclusive: 3.98 µM [activator, single point]
C(=N\Nc1ccc(-n2ccnc2)nn1)/c1ccccc1 | inactive: 23.5% | 
O=C(COc1cccc2c1CCN(Cc1ccc(Br)cc1)C2=O)NCc1ccco1 | inactive: -25.9% | 
COc1ccc(CCNC(=O)c2ccc3c(c2)OCCO3)cc1 |  | inconclusive: 17.8 µM [activator, partial curve, poor fit]
O=C(CCc1ccc(O)c(O)c1)NNC(=S)NCCc1ccccc1 |  | inconclusive: 0.178 µM [activator, full curve, poor fit]
CCc1c(O)nc(SCC(N)=O)n(-c2ccccc2F)c1=O |  | inconclusive: 6.31 µM [activator, single point]
CCC(C)C(NC(C)=O)C(=O)NC(=O)NC(c1ccccc1)c1ccccc1 (configuration not stated) |  | inconclusive: 12.6 µM [activator, single point]
CCCOc1cccc(C(=O)Nc2cc(-c3ccccc3)no2)c1 |  | active: 14.1 µM
Cc1ccc(CNC(=O)CC2Oc3ccc(Cl)cc3NC2=O)cc1 (configuration not stated) |  | inconclusive: 35.5 µM [activator, single point]
Cc1ccc(/C=N\Nc2nc3ccc(Cl)cc3[nH]2)o1 |  | inconclusive: 14.1 µM [activator, single point]
O=C1OC(c2ccccc2)=C/C1=C/N1CCOCC1 |  | inconclusive: 8.91 µM [activator, partial curve]
Cc1ccc(-c2cc(C(=O)N/N=C/C=C/c3ccco3)c3ccccc3n2)cc1C |  | inconclusive: 31.6 µM [activator, single point]
C/C(N)=C(/C#N)C(=O)COC(=O)c1cc(-c2ccc(C)cc2)nc2ccccc12 |  | inconclusive: 22.4 µM [activator, single point]
CN(C)c1cccc(C(=O)NCc2ccccc2)c1 |  | inconclusive: 0.794 µM [activator, partial curve, poor fit]
O=C(CSc1nnc(Nc2ccccc2F)s1)c1cc2ccccc2o1 | inactive: 19.9% | 
O=C(N/N=C/c1cccc(Oc2ccccc2)c1)c1ccncc1 |  | inconclusive: 17.8 µM [activator, single point]
Cc1sc(NC(=O)CSc2nnc(CCNC(=O)c3cccs3)n2C)nc1-c1ccccc1 |  | inconclusive: 2.82 µM [activator, partial curve]
CCCCS(=O)Cc1ccccc1 (configuration not stated) |  | inconclusive: 3.55 µM [activator, full curve, poor fit]
COc1ccccc1-c1ccc(NC2CCCC2)nn1 |  | active: 11.2 µM
CC(C)(C)NC(=O)c1cnn2c1NC(c1ccc(F)cc1)CC2C(F)(F)F (configuration not stated) |  | inconclusive: 31.6 µM [activator, single point]
CC(C)N1CN=C(Nc2nc3ccccc3o2)NC1 |  | inconclusive: 15.8 µM [activator, partial curve]
COc1ccc(Cl)cc1NC(=S)N(Cc1ccc(C(=O)O)cc1)Cc1ccc(OC)c(OC)c1 | inactive: -39.5% | 
Cc1cc(Cl)c(S(=O)(=O)NC2CCCC2)cc1OCC(=O)NC1CCCCC1 | inactive: -101% | 
O=C(NNC(=S)Nc1ccccc1)c1cccc(Br)c1 |  | inconclusive: 35.5 µM [activator, single point]
